Binding signal data for 31 molecules are collected here from publication PMC9911399, “Two distinct binding modes provide the RNA-binding protein RbFox with extraordinary sequence specificity”.

First the molecules themselves.
B1: AUUGGAG (DNA:RNA)
RNA: GGGAGACCGGAAUUCAGAUUGUCCAUUGGAGUUAAAUCCCGUCGUAGCCACCA
DNA 1: CAATCTGAATTCCGGTCTCCC
DNA 2: TGGTGGCTACGACGGGATT
B2: CAUUCCU (DNA:RNA)
RNA: B1 RNA with A25C, U26A, G28U, G29C, A30C, G31U
DNA 1: CAATCTGAATTCCGGTCTCCC
DNA 2: TGGTGGCTACGACGGGATT
B3: GCGAUUC (DNA:RNA)
RNA: GGGAGACCGGAAUUCAGAUUGUCCGCGAUUCUUAAAUCCCGUCGUAGCCACCA
DNA 1: CAATCTGAATTCCGGTCTCCC
DNA 2: TGGTGGCTACGACGGGATT
B4: UCACCGG (DNA:RNA)
RNA: B1 RNA with A25U, U26C, U27A, G28C, G29C, A30G
DNA 1: CAATCTGAATTCCGGTCTCCC
DNA 2: TGGTGGCTACGACGGGATT
B5: GCGCGAG (DNA:RNA)
RNA: B1 RNA with A25G, U26C, U27G, G28C
DNA 1: CAATCTGAATTCCGGTCTCCC
DNA 2: TGGTGGCTACGACGGGATT
B6: AAGUGGU (DNA:RNA)
RNA: B1 RNA with U26A, U27G, G28U, A30G, G31U
DNA 1: CAATCTGAATTCCGGTCTCCC
DNA 2: TGGTGGCTACGACGGGATT
B7: AACGUAA (DNA:RNA)
RNA: B1 RNA with U26A, U27C, G29U, G31A
DNA 1: CAATCTGAATTCCGGTCTCCC
DNA 2: TGGTGGCTACGACGGGATT
B8: AAAACGA (DNA:RNA)
RNA: B1 RNA with U26A, U27A, G28A, G29C, A30G, G31A
DNA 1: CAATCTGAATTCCGGTCTCCC
DNA 2: TGGTGGCTACGACGGGATT
B9: CUGGCGG (DNA:RNA)
RNA: B1 RNA with A25C, U27G, G29C, A30G
DNA 1: CAATCTGAATTCCGGTCTCCC
DNA 2: TGGTGGCTACGACGGGATT
B10: UUCGACG (DNA:RNA)
RNA: B1 RNA with A25U, U27C, G29A, A30C
DNA 1: CAATCTGAATTCCGGTCTCCC
DNA 2: TGGTGGCTACGACGGGATT
B11: CCUGUUG (DNA:RNA)
RNA: B1 RNA with A25C, U26C, G29U, A30U
DNA 1: CAATCTGAATTCCGGTCTCCC
DNA 2: TGGTGGCTACGACGGGATT
B12: CCCUACA (DNA:RNA)
RNA: B3 RNA with G25C, G27C, A28U, U29A, U30C, C31A
DNA 1: CAATCTGAATTCCGGTCTCCC
DNA 2: TGGTGGCTACGACGGGATT
B13: GCGUCUU (DNA:RNA)
RNA: B3 RNA with A28U, U29C, C31U
DNA 1: CAATCTGAATTCCGGTCTCCC
DNA 2: TGGTGGCTACGACGGGATT
B14: UCGUAGC (DNA:RNA)
RNA: B3 RNA with G25U, A28U, U29A, U30G
DNA 1: CAATCTGAATTCCGGTCTCCC
DNA 2: TGGTGGCTACGACGGGATT
B15: AACCGAU (DNA:RNA)
RNA: B1 RNA with U26A, U27C, G28C, G31U
DNA 1: CAATCTGAATTCCGGTCTCCC
DNA 2: TGGTGGCTACGACGGGATT
B16: AUAAACC (DNA:RNA)
RNA: B1 RNA with U27A, G28A, G29A, A30C, G31C
DNA 1: CAATCTGAATTCCGGTCTCCC
DNA 2: TGGTGGCTACGACGGGATT
B17: GGUGUAA (DNA:RNA)
RNA: B1 RNA with A25G, U26G, G29U, G31A
DNA 1: CAATCTGAATTCCGGTCTCCC
DNA 2: TGGTGGCTACGACGGGATT
B18: CGACGCA (DNA:RNA)
RNA: B1 RNA with A25C, U26G, U27A, G28C, A30C, G31A
DNA 1: CAATCTGAATTCCGGTCTCCC
DNA 2: TGGTGGCTACGACGGGATT
B19: GGGCUUA (DNA:RNA)
RNA: B3 RNA with C26G, A28C, C31A
DNA 1: CAATCTGAATTCCGGTCTCCC
DNA 2: TGGTGGCTACGACGGGATT
B20: AAUAGAA (DNA:RNA)
RNA: B1 RNA with U26A, G28A, G31A
DNA 1: CAATCTGAATTCCGGTCTCCC
DNA 2: TGGTGGCTACGACGGGATT
B21: GAAUGAC (DNA:RNA)
RNA: B1 RNA with A25G, U26A, U27A, G28U, G31C
DNA 1: CAATCTGAATTCCGGTCTCCC
DNA 2: TGGTGGCTACGACGGGATT
B22: CGCGGGG (DNA:RNA)
RNA: B1 RNA with A25C, U26G, U27C, A30G
DNA 1: CAATCTGAATTCCGGTCTCCC
DNA 2: TGGTGGCTACGACGGGATT
B23: GGUGCGC (DNA:RNA)
RNA: B1 RNA with A25G, U26G, G29C, A30G, G31C
DNA 1: CAATCTGAATTCCGGTCTCCC
DNA 2: TGGTGGCTACGACGGGATT
B24: UCGUGAG (DNA:RNA)
RNA: B1 RNA with A25U, U26C, U27G, G28U
DNA 1: CAATCTGAATTCCGGTCTCCC
DNA 2: TGGTGGCTACGACGGGATT
B25: GGGAUUU (DNA:RNA)
RNA: B3 RNA with C26G, C31U
DNA 1: CAATCTGAATTCCGGTCTCCC
DNA 2: TGGTGGCTACGACGGGATT
B26: UUUGUGG (DNA:RNA)
RNA: B1 RNA with A25U, G29U, A30G
DNA 1: CAATCTGAATTCCGGTCTCCC
DNA 2: TGGTGGCTACGACGGGATT
B27: GAACGCA (DNA:RNA)
RNA: B1 RNA with A25G, U26A, U27A, G28C, A30C, G31A
DNA 1: CAATCTGAATTCCGGTCTCCC
DNA 2: TGGTGGCTACGACGGGATT
B28: AUCGCGU (DNA:RNA)
RNA: B1 RNA with U27C, G29C, A30G, G31U
DNA 1: CAATCTGAATTCCGGTCTCCC
DNA 2: TGGTGGCTACGACGGGATT
B29: GCCGCGG (DNA:RNA)
RNA: B1 RNA with A25G, U26C, U27C, G29C, A30G
DNA 1: CAATCTGAATTCCGGTCTCCC
DNA 2: TGGTGGCTACGACGGGATT
B30: CAAGUAU (DNA:RNA)
RNA: B1 RNA with A25C, U26A, U27A, G29U, G31U
DNA 1: CAATCTGAATTCCGGTCTCCC
DNA 2: TGGTGGCTACGACGGGATT
B31: GGUCUAC (DNA:RNA)
RNA: B3 RNA with C26G, G27U, A28C, U30A
DNA 1: CAATCTGAATTCCGGTCTCCC
DNA 2: TGGTGGCTACGACGGGATT

Changes are numbered by the printed parent chain; changes in the protein carry UniProt numbers. The list shows a part of the results.

The assay has as its target T1, RBFOX1 RRM RbFoxmut (Fox-RRM*) (Homo sapiens, UniProt Q9NWB1 109-208, R118D;E147R;N151S;E152T).
T1 sequence: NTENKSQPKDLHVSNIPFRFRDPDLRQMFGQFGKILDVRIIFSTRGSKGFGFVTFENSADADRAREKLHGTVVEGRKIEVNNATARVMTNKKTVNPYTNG
The assay can be described thus: EMSA; HiTS-Eq, 1 nM pool, 10 min; buffer printed only for the single-RNA assays: 10 mM Tris pH 7.5, 150 mM NaCl, 3.4 mM EDTA, 0.001% NP-40, 30 C. To be noted: tags: His6 N-terminal (pET28a); label: 5' 32P. Put shortly:
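A pool of RNA with 7 randomized nucleotides, 5′-radiolabelled and with DNA-annealed flanks, was equilibrated at 1 nM for 10 min in 50 µL with purified RbFox RRM, wild type or mutant, across increasing protein concentrations. Free RNA was separated by 8% native PAGE, excised, reverse-transcribed, barcoded by PCR and sequenced. Relative association constants were obtained from read-count changes of each RNA species versus the control reaction and normalised to the cognate motif.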
For orientation: Mobility shift assays separate free from complexed probe on a gel.
Regarding B1, the binding signal was 0.124 KA relative to UGCAUGU. The value for B2 was 0.0964 KA relative to UGCAUGU; that for B3 was 0.0849 KA relative to UGCAUGU. The value for B4 was 0.0678 KA relative to UGCAUGU; that for B5 was 0.127 KA relative to UGCAUGU. For B6 the value was 0.109 KA relative to UGCAUGU.

Take B7: the binding signal was 0.096 KA relative to UGCAUGU. Turning to B8, the binding signal is 0.0531 KA relative to UGCAUGU. For B9 the value was 0.0885 KA relative to UGCAUGU; for B10, 0.0706 KA relative to UGCAUGU; for B11, 0.136 KA relative to UGCAUGU. For B12 the value was 0.106 KA relative to UGCAUGU; for B13, 0.0648 KA relative to UGCAUGU. The value for B14 was 0.107 KA relative to UGCAUGU; that for B15 was 0.0947 KA relative to UGCAUGU; that for B16 was 0.0693 KA relative to UGCAUGU.

As for B17, the binding signal was 0.0999 KA relative to UGCAUGU. For B18 the value was 0.117 KA relative to UGCAUGU; for B19, 0.107 KA relative to UGCAUGU; for B20, 0.111 KA relative to UGCAUGU. The value for B21 was 0.829 KA relative to UGCAUGU; that for B22 was 0.0735 KA relative to UGCAUGU; that for B23 was 0.0984 KA relative to UGCAUGU.

As to B24, the binding signal was 0.147 KA relative to UGCAUGU.

As for B25, the binding signal was 0.0579 KA relative to UGCAUGU.

Take B26: the binding signal is 0.106 KA relative to UGCAUGU. As for B27, the binding signal was 0.171 KA relative to UGCAUGU. For B28 the value was 0.165 KA relative to UGCAUGU; for B29, 0.0996 KA relative to UGCAUGU. For B30 the value was 0.126 KA relative to UGCAUGU; for B31, 0.0853 KA relative to UGCAUGU.
